# Reference: PubChem BioAssay AID938 (National Center for Advancing Translational Sciences (NCATS), 2007)
# “And” between values parts separate entries of the source, which are not always exact repeats. Identical values can stand only once. The campaign covered roughly 73,000 compounds. About 1,800 (2.5%) were called active. Roughly 13% stayed inconclusive and do not appear here. Calls come from the whole dose curve; as a rule, active = well fitted activation curve with a large enough effect; inconclusive = small, poorly fitted or top-dose-only effect; inactive = no such curve, though single readings can be large or run the other way. The list shows a part of the results, in another mix than the full data.
# Assay: qHTS Assay for Agonists of the Thyroid Stimulating Hormone Receptor: Activators of Intracellular cAMP Concentrations in Parental HEK 293; note: nearly all actives have a fitted effect of over 55% in size; for activation: % of control where 0% means no effect
# Details: parental HEK293 CNG cAMP sensor, membrane potential fluorescence; series mostly up to 57.1 µM; activation: at the top concentration
# Source text: NIH Chemical Genomics Center [NCGC]
# NIH Molecular Libraries Screening Centers Network [MLSCN]
# PI Name: Dr. Marvin Gershengorn
# This cell based assay utilized a cyclic nucleotide gated ion channel (CNG) as a biosensor for cAMP induction. HEK 293 cells stably expressing the modified CNG were purchased from BD biosciences (http://www.atto.com/products/actone/features_benefits.shtml) . Stimulation of cAMP production causes the CNG to open and subsequent membrane depolarization to occur. A fluorescent membrane potential dye (BD biosciences) was utilized to detect cAMP stimulation in cells.
# The cells were maintained in DMEM medium (Invitrogen) containing 10 % FBS (Hyclone), 100 units/ml Penicillin, 100 ug/ml Streptomycin (Invitrogen), and 250 ug/ml Geneticin (Invitrogen) and 1 ug/ml Puromycin (Invitrogen) at 37C in 5% CO2. This assay was used as a counterscreen to "qHTS Assay for Agonists of the Thyroid Stimulating Hormone Receptor", to control for compounds signaling through endogenous receptors and other targets of HEK 293 cells.
# NCGC Assay Protocol Summary:
# High Throughput Screening. Freshly passaged cells were dispensed into 1536-well assay plates at 4 ul/well in DMEM containing phenol red (Invitrogen), 10% FCS (Hyclone), and 100 units/ml Penicillin, 100 ug/ml Streptomycin (Invitrogen) and incubated at 37 C with 5% CO2 for 20 to 36 hrs before the robotic screening. The screen was initiated by addition of 4 ul/well membrane potential dye containing 100 uM RO 20-1724 (Sigma Aldrich), followed by 60 min incubation at room temperature to allow for dye equilibration across the cell membrane. 23 nl/well compound or control was then added to the assay plates, which were incubated for additional 30 min before reading a Envision fluorescence plate reader (Perkin Elmer) in bottom-read mode for fluorescence intensity (emission at 590 nm).
# Keywords: cAMP, CNG Ion Channel, quantitative high throughput screening, qHTS, HTS, probe identification, CNG, cAMP, cyclic nucleotide gated ion channel PubChem
# Potency is the fitted concentration of half-maximal effect.
SMILES,Potency,activation
COC(=O)[C@@]1(Cc2ccc(F)cc2)[C@H]2c3cc(C(=O)N4CCCC4)n(Cc4ccc(OC(F)(F)F)cc4)c3C[C@H]2CN1C(=O)c1ccccc1,active: 1.58 µM,–
N#CC1=C(N)N2C(=C(C#N)C13CCCCC3)SC1CCCCC12O (stereo unspecified),–,inactive: -31.7%
CCC(C)c1ccccc1O (stereo unspecified),–,inactive: -8.93%
N#Cc1cc2c(nc1SCC(=O)Nc1nccs1)CCCCC2,active: 20 µM,–
COC(=O)[C@@H]1C[C@H]1[C@@H](NS(=O)(=O)c1ccc(-c2ccccc2)cc1)c1ccccc1,–,inactive: 13.8%
Nc1c2c(nc3ccccc13)CCC2,–,inactive: -84.1%
CC1CCC2C(=O)N3C(CCC(C)[C@@H]3c3ccc(Br)cc3)C(=O)N2C1c1ccc(Br)cc1 (stereo partly specified),–,inactive: -4.77% [at 11.4 µM]
CCc1cc(=O)oc2cc3oc(C)c(C)c3cc12,active: 25.1 µM,–
COc1ccc(C2=CC(c3c(C)nn(-c4ccccc4)c3Cl)n3nnnc3N2)cc1OC (stereo unspecified),–,inactive: 18.1%
COc1ccc2nc3cc(Cl)ccc3c(Nc3ccc(O)c(CN4CCN(C)CC4)c3)c2c1,–,inactive: -30.8% [at 11.4 µM]
CC1CN2C(CCC(C)C2c2ccc(Br)cc2)C(=O)O1 (stereo unspecified),–,inactive: -4.26% [at 11.4 µM] and inactive: 11% [at 11.4 µM] and inactive: 4.51% [at 11.4 µM]
Cc1c(C(=O)OC(C)C)[nH]c2c1C(=O)CCC2,–,inactive: 7.05%
COC(=O)[C@@]1(Cc2ccc(OC)cc2)[C@H]2c3cc(C(=O)N4CCCC4)n(Cc4ccc(OC(F)(F)F)cc4)c3C[C@H]2CN1C(=O)c1ccccc1,active: 2.51 µM,–
COc1ccc2cc3[n+](cc2c1OC)CCc1cc2c(cc1-3)OCO2,inactive,–
Nc1ncnc2c1ncn2[C@H]1CC[C@@H](CO)O1,–,inactive: -9.22%
CC[C@@H]1Cc2cc(O)ccc2C2=C1c1ccc(O)cc1C[C@H]2CC,active: 6.31 µM,–
COC(=O)c1cn[nH]c1N,–,inactive: 2.07%
CCCCCCC=O,–,inactive: -9.15%
Cc1[nH]c2ccc(-c3nnc(SCC(=O)N4CCCc5ccccc54)o3)cc2c1C,–,inactive: -1.97%
CCc1ccc(-c2nnn(CCC(=O)OC)n2)cc1,active: 7.94 µM,–
C[C@@H](C(=O)NCC1CC1)[C@H]1C[C@]1(C)[C@H](NC(=O)OCc1ccccc1)c1ccccc1,active: 10 µM,–

SMILES,Potency,activation
COC(=O)[C@@H]1[C@H]2C[C@H]3c4[nH]c5cc(OC)ccc5c4CCN3C[C@@H]2C[C@@H](OC(=O)c2cc(OC)c(OC)c(OC)c2)[C@@H]1OC,inactive,–
CN(C)c1ccc(C(=N)c2ccc(N(C)C)cc2)cc1,–,inactive: 4.86%
COC(=O)[C@H](Cc1ccccc1)NC(=O)[C@H]1C[C@@H]1[C@H](NC(=O)OCc1ccccc1)c1ccccc1,active: 15.8 µM,–
COc1ccc(N2CCN(C(=O)CSc3nnc(C)c(=O)[nH]3)CC2)cc1,active: 1.26 µM,–
Cc1ccc(-c2nnn(CC(=O)Nc3cccc4cccnc34)n2)o1,active: 25.1 µM,–
O=C1Nc2ccc(I)cc2/C1=C/c1cc(Br)c(O)c(Br)c1,inactive,–
CN(C)CCNc1c2c(c(C#N)c3nc4ccccc4n13)CCCC2,–,inactive: -93.8%
O=C(NCc1ccc2c(c1)OCO2)c1ccc2snnc2c1,active: 7.94 µM,–
CNc1nc(-c2ccc(N(C)C)cc2)nc2ccccc12,–,inactive: -72%
Cc1ccc2nc(-c3cccc(S(=O)(=O)N(C)C)c3)cn2c1,active: 25.1 µM,–
O=c1c2cccnc2[nH]c(=S)n1CCCN1CCN(c2ccccc2F)CC1,–,inactive: -61.4%
O=C(O)c1cc([N+](=O)[O-])ccc1NCCCc1ccccc1,–,inactive: 20.7%
CCN1C(=O)/C(=c2\o/c(=C3\C=Cc4ccccc4N3CC)c(=O)n2CC)SC1=S,–,inactive: -26.8%
CC(C)(C)[C@@]1(O)CCN2C[C@@H]3c4ccccc4CCc4cccc(c43)[C@@H]2C1,–,inactive: 27.2%
COc1cccc(-c2nc(CS(=O)(=O)CC(=O)Nc3cc(C)ccc3C)c(C)o2)c1,–,inactive: 13.4%
c1ccc2c(c1)ccc1ccccc12,–,inactive: 34.5%
CN(C)c1nc(N)c(C(=O)N=C(N)N)nc1Cl,active: 25.1 µM,–
O=C(NCCN1CCc2ccccc2C1)C1CCN(S(=O)(=O)N2CCCCC2)CC1,–,inactive: -44.6%
CN1CCN(c2nc(-c3ccc(N(C)C)cc3)nc3ccccc23)CC1,–,inactive: -89.1%
Oc1ccc([C@@H]2CNCCc3c2cc(O)c(O)c3Cl)cc1,–,inactive: 7%
Cc1ccc(C)c(OCCCC(C)(C)C(=O)O)c1,–,inactive: 2.75% [at 25.6 µM]

SMILES,Potency,activation
CCOC(=O)C1=C[C@@]2(CC)CCCN3CCc4c(n1c1ccccc41)[C@H]32,inactive,–
CN(C)Cc1ccccc1,–,inactive: 14.8%
CCn1c(Cn2nnc(-c3ccccc3)n2)nnc1SCC(=O)Nc1ccc(C(C)=O)cc1,–,inactive: -38%
CCCCCCn1c(SCC(C)C)nc2c1c(=O)[nH]c(=O)n2C,active: 25.1 µM,–
CC(C)=CC1C(C(=O)Nc2ccc(Br)cn2)C1(C)C (stereo unspecified),active: 25.1 µM,–
CC[C@H](C)N(C)C(=O)c1cc2ccccc2c(-c2ccccc2Cl)n1,–,inactive: 0.879%
CN(C)CCC(c1ccc(Cl)cc1)c1ccccn1 (stereo unspecified),–,inactive: 18%
COC1=CC(=O)C[C@@H](C)[C@]12Oc1c(Cl)c(OC)cc(OC)c1C2=O,–,inactive: 46.8%
CCCC(CCC)C(=O)O,–,inactive: 13.3%
Cc1cc(-c2ccc(N=Nc3cc(S(=O)(=O)O)c4ccccc4c3N)c(C)c2)ccc1N=Nc1cc(S(=O)(=O)O)c2ccccc2c1N,–,inactive: -37.3%
CCc1nc2oc(C(=O)c3ccccc3)c(N)c2c2c1COC(C)(C)C2,–,inactive: 0.422% [at 11.4 µM]
FC(F)(F)c1cnc(Nc2ccc(N3CCOCC3)cc2)c(Cl)c1,–,inactive: -33.4%
Cc1cc(C)c2nc(-c3ccccn3)cc(C(=O)NCc3ccco3)c2c1,active: 25.1 µM,–
CCCCOc1ccccc1NC(=O)c1ccco1,active: 15.8 µM,–
N#Cc1nc(-c2ccco2)oc1N1CCc2ccccc2C1,active: 25.1 µM,–
CCC(=O)N1c2ccc(S(=O)(=O)CCC(=O)NCCC3=CCCCC3)cc2CC1C (stereo unspecified),–,inactive: 7.28%
COC(=O)[C@@]1(C)C=C[C@@H](Cc2ccccc2)N1C(=O)c1ccccc1,active: 20 µM,–
CCC(C)(C)NC(=O)C(c1ccc(C)o1)N(Cc1cccs1)C(=O)Cn1nnc2ccccc21 (stereo unspecified),active: 15.8 µM,–
CC(C)n1c(C(=O)OCC(=O)NCc2ccc3c(c2)OCO3)cc2sccc21,active: 7.94 µM,–
